# The campaign covered roughly 360,000 compounds. About 25,000 (6.9%) were called active. The shares of active, inactive and inconclusive entries below differ from those in the screen. Calls follow the shape of the dose curve; as a rule, active = well fitted inhibition curve with a large enough effect; inconclusive = small, poorly fitted or top-dose-only effect; inactive = flat fitted curve, though single readings scatter. Where the call is inconclusive, the potency comes from a doubtful curve fit.
# Target: Luciferin 4-monooxygenase (Photinus pyralis) (UniProt P08659)
# Experiment: qHTS profiling assay for firefly luciferase inhibitor/activator using purifed enzyme and Km concentrations of substrates (counterscreen for miR-21 project); also: nearly all actives have a fitted effect of over 55% in size
# Details: purified FLuc, luminescence inhibition; series mostly up to 57.5 µM
# Procedure, shortened: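 Purified P. pyralis luciferase, 10 nM final, with Km-level 10 uM D-luciferin and 10 uM ATP in 50 mM Tris acetate pH 7.5, 10 mM Mg acetate, 0.01% Tween-20, 0.05% BSA; 6-point qHTS titration about 60 µM downward; luminescence read.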
# Potency is read from the fitted curve at half-maximal effect; tags tell the direction and shape of the fitted curve.
# Sequence of UniProt P08659 (P08659 whole entry, looked up): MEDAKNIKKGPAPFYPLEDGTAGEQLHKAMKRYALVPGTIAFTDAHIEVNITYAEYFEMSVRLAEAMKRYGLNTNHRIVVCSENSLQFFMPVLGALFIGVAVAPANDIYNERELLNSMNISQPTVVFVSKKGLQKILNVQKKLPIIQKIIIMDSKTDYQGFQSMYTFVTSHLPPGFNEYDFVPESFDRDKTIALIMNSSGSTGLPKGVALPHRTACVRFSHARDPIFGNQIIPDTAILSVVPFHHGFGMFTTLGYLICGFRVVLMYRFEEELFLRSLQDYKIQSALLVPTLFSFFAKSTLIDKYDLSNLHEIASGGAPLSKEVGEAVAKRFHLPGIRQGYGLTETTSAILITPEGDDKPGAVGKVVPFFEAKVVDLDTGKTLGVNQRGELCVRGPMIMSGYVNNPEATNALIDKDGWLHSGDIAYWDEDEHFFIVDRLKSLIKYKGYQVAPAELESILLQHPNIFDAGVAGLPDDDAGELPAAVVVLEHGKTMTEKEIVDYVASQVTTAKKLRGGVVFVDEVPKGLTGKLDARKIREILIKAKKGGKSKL
row,SMILES,Potency
1,O=C(CSc1nc2c([nH]c3ccccc32)c(=O)n1-c1ccccc1)NCC1CCCO1 (stereo not given),inactive
2,Cc1[nH]n(-c2ccccc2)c(=O)c1C=NC1CCCCCC1,"inconclusive: 21.3 µM [inhibitor, partial curve]"
3,COc1ccccc1C(=O)Nc1ccc2nc3n(c(=O)c2c1)CCCC3,"inconclusive: 23.9 µM [inhibitor, single point]"
4,CCCNC(C)(C)COC(=O)c1ccccc1,inactive
5,COCCNS(=O)(=O)c1cc(F)ccc1OC,inactive
6,COc1ccc(CN(C)c2ccc(-c3nc(C)no3)cc2[N+](=O)[O-])cc1,"inconclusive: 15.1 µM [inhibitor, partial curve]"
7,Cc1c(C)c2cccnc2c2ncccc12,"inconclusive: 0.953 µM [inhibitor, full curve, poor fit]"
8,Cc1ccn2c(NC(=O)C(C)(C)Oc3ccc(Cl)cc3)c(-c3cccs3)nc2c1,"inconclusive: 30.1 µM [inhibitor, single point]"
9,CCCc1nnc(NC(=S)Nc2ccccc2)s1,"inconclusive: 5.36 µM [inhibitor, partial curve, poor fit]"
10,Cc1ccc(S(=O)(=O)N(C)C)cc1NC(=O)COC(=O)CCCOc1ccccc1,"inconclusive: 33.8 µM [inhibitor, partial curve, poor fit]"
11,CCOC(=O)c1nc2c(ccc3ccccc32)cc1C,active: 15.1 µM
12,COc1ccc(C(=O)NCC(=O)OCC(=O)N2CCc3ccccc32)cc1,"inconclusive: 26.9 µM [inhibitor, partial curve]"
13,CCC(=NCc1ccco1)c1c(C(F)(F)F)[nH]n(-c2nc3ccccc3s2)c1=O,active: 7.57 µM
14,CC(C)OCCCNC(=O)CCC(=O)NNc1nc2ccccc2c2nc(-c3ccccc3)nn12,"inconclusive: 21.3 µM [inhibitor, partial curve, poor fit]"
15,CCC(C)(CC(=O)Nc1nccs1)c1ccccc1 (stereo not given),inactive
16,CCOC(=O)c1cc(S(=O)(=O)NCc2ccc(F)cc2)[nH]n1,"inconclusive: 23.9 µM [inhibitor, partial curve, poor fit]"
17,Cc1nn(C)c(C(=O)N2CCOCC2)c1Cl,inactive
18,COc1cc(/C=N\NC(=O)c2ccc(Cn3nc([N+](=O)[O-])c(Cl)c3C)o2)ccc1O,"inconclusive: 26.9 µM [inhibitor, partial curve, poor fit]"
19,COc1ccccc1N1CCN(C(=O)CSc2nnc3c4ccccc4nc(Cc4ccccc4)n23)CC1,inactive
20,O=C(COc1ccccc1)NCC(=O)N1CCCCCC1,inactive

# From PubChem BioAssay AID588342 (National Center for Advancing Translational Sciences (NCATS), 2011)
